Variants at the floor of the assay are shown more often than the library holds them.
B1: TPR 5TU (parent)
chain: GGAUCUUCUCGAUCUAACAAAAAAGACAAAUCUGCCACAAAGCUUGAGAGCAUCUUCGGAUGCAGAGGCGGCAGCCUUCGGUGGCGCGAUAGCGCCAACGUUCUCAACUAUGACACGCAAAACGCGUGCUCCGUUGAAUGGAGUUUAUCAUG

Variants of: B1
Test: polymerase ribozyme fitness, log enrichment relative to wild type (log ratio); higher = more active; in vitro selection for triplet polymerase activity
Procedure, shortened: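 Each subunit of a heterodimeric triplet polymerase ribozyme was represented by a PCR-built, transcribed mutant library that underwent triplicate single-round in vitro selection with frozen incubation at −7 °C. Extended constructs were recovered by gel excision, streptavidin-bead capture and RT-PCR, and Illumina sequencing of input and output libraries kept genotypes with ≥10 input reads and ≥1 read per output. Fitness is the logarithm of genotype enrichment relative to wild-type enrichment, from inverse-variance-weighted replicate averages, with a logarithm base of 2.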

Variant | polymerase ribozyme fitness (log ratio)
A20U A52U A89C | -3.39
A20U C27U A41U G42U U44A C87G | ≤ -4.2
A20G G83A G88C C93G G100A C149U | ≤ -4.2
A21C G25C C76G A137C U145G | ≤ -4.2
A20U A23U A64C A91G A107G | ≤ -4.2
A21C C93A C99U G136U A142U | ≤ -4.2
A21U A23U A47C G83A A137U | ≤ -4.2
A20U A21C G34A C43U C79A U148C | ≤ -4.2
A21C A142C | 0.655
A20U A47C C57U A64C G84C U148G | ≤ -4.2
A21C A24G A39C G86U G133C | ≤ -4.2
A20C A49G | -0.512
A20U U56A G94C A98G G133A | ≤ -4.2
A21C C27G U44A A66C G70C C87G | ≤ -4.2
A21U A52C C85U C99G G128A A142C | ≤ -4.2
A20C A29C C87G A122G G140U | ≤ -4.2
A20U A26G C75A C76U C93G G112U C118G G124A | ≤ -4.2
A20U A21U U31C U44A A52C U55A C57U G86A C87A C96A C123A G141C | ≤ -4.2
A21C G88A U104G A107U | ≤ -4.2
A20G U31G C54U G71C C123G U144A | ≤ -4.2
A20U G46A C76A C87G G94C C105G U144A | ≤ -4.2

Variant | polymerase ribozyme fitness (log ratio)
A20G U53A U78G A97G A98U C118A U144C A150C | ≤ -4.2
A20U C36U G92A A106C G126U U130G | ≤ -4.2
A20G A21C G84U C95G G117U | -0.439
A20U C38U A64G G117U U135C | ≤ -4.2
A20C A29U G74C C87U C93G C96A U135G U148A | ≤ -4.2
A21C A98U U135G | ≤ -4.2
A21C A52C C57U G68A C76G C93U C95U C105U | ≤ -4.2
A20U A24U A30G C79G A91C A97U A115C | ≤ -4.2
A20U U61G A89C A91C C93A U101A | ≤ -4.2
A21U A47C G48C G84U G141C U146C | ≤ -4.2
A20U A40U C96U C103G U104C G126C | ≤ -4.2
A20U A97U | -2.04
A20C A29U C57U C96U | ≤ -4.2
A20C A47U C51U C105U U144A | -2.59
A20U A28U C36G C75G C87G | ≤ -4.2
A20C C27G G94A C96G C105G A115G | ≤ -4.2
A20U G86A C87G A91U C118A | ≤ -4.2
A21U A39C C57U A97G | -2.62
A20U U82G C93U | -2.36
A21U A73U C116A U134A G141C A150G | ≤ -4.2
A21U C38A | 0.268

Variant | polymerase ribozyme fitness (log ratio)
A20C G42C G58U C87G C103U A138C | ≤ -4.2
A21C A49U U111C U151C | ≤ -4.2
A20U A52G C75U G88A C103G A119C | ≤ -4.2
A21C G58C U61G U146G | -3.25
A20U A23G A41C | ≤ -4.2
A21G G42U C54A C72U C76U C79U G84U | ≤ -4.2
A21C C75A A91U A98U A120G | ≤ -4.2
A20C U53A | -2.16
A20C A49C A52C C57U C76A G88A A106G G126C U145G | ≤ -4.2
A21C G34U G80A C95A C103G C116U C118G | ≤ -4.2
A21U A37G U55G A60C U77G A97G | ≤ -4.2
A21U C54A C96U | -2.01
A20U G48A U53A G71U A121G | ≤ -4.2
A21C C27A A40U G46A C57U C87G G126A | ≤ -4.2
A21G C57A | 1.14
A21U C79G | -3.91
A21G G94U A115G A138U G141A G143C | ≤ -4.2
A20U G50C G67C U78G C96A A142C | ≤ -4.2
A20G A22C G50U C99U A137C | ≤ -4.2
A21C C35U G84A U90G C99U U127G U151G | ≤ -4.2
A21C G88U U135A | ≤ -4.2

Variant | polymerase ribozyme fitness (log ratio)
A20U A37C A52G G124U | -2.09
A20G G46A G83U G92C A106U | ≤ -4.2
A20U G81C A147U | -0.168
A21C U33G C87U U145A A150U | ≤ -4.2
A21C G50A C57A C93A U135G | ≤ -4.2
A21G C32G G50A U56G A73C G92C | ≤ -4.2
A20U U82C C103U A115U G126C U144A | ≤ -4.2
A21U A23G A28C G59A C76G U90G C114U G141C | ≤ -4.2
A21C A89C C95U A142G | -3.16
A21U C93G | -2.5
A20C A47C | -0.462
A20C G70C G80A U90C G133C | ≤ -4.2
A20U G83A C96G C118U U134A U144A | -3.46
A21U A30G A52C U55G C87U A89U C116A | ≤ -4.2
A20C U31G A49C A52C U53C | ≤ -4.2
A21C G42U C69G C85U A98U A106G A120U | ≤ -4.2
A21C G50A C96U C125G | -1.98
A20C C85U A122C G133A G140C | ≤ -4.2
A20G C36U C38A G58U C95U A110G A150C | ≤ -4.2
A20C A30U C32U U55A C96G A97C C105A A107C G117C C125U | ≤ -4.2
A21U A52G C76A G81C C87G C114U A121C U146A | ≤ -4.2

— the RNAGym collection of RNA variant scans (doi:10.1073/pnas.2313332121)
